Results published in PubChem BioAssay (Tox21).
Inconclusive results, whose numbers are uncertain, are shown with a selection of clear calls. Potencies of inconclusive entries are left out as doubtful fits. Calls of active or inactive are those of the source. Unless noted, calls come from the whole dose curve.

Test system: not listed separately
Test: p53 small molecule agonists, cell-based qHTS assay (AID 1963582; active = well fitted activation curve with a large enough effect in the signal ratio in the repeat runs, not every such curve was filed as active; inconclusive = weak or mixed curves; the % refers to the signal ratio)
Details: HCT-116 p53RE-bla reporter, beta-lactamase FRET ratio, 16 h; activation: at 66 µM (top of the series) unless noted
Procedure, shortened: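 Cells carrying a p53-responsive bla reporter are treated with test compounds for 16 h at 37 C; beta-lactamase activity is then detected with LiveBLAzer B/G FRET substrate after 2 h at room temperature.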
% is set by controls: 0 for no effect and ±100 for the full control effect; potency is the fitted concentration of half-maximal effect; tags give direction and shape of the fitted curve or compound fluorescence and quenching.

SMILES | Potency | activation
NS(=O)(=O)C(F)(F)C(F)(F)C(F)(F)C(F)(F)C(F)(F)C(F)(F)C(F)(F)C(F)(F)F | inconclusive [rising, partial curve] | –
COC(=O)C(C)Oc1ccc(Oc2ccc(Cl)cc2Cl)cc1 (stereo not drawn) | inconclusive [falling, single point] | –
C#C[C@]1(O)CC[C@H]2[C@@H]3CCC4=CC(=O)CC[C@]4(C)[C@H]3CC[C@@]21C | inactive | –
CCCCOC(=O)[C@@H](C)Oc1ccc(Oc2ccc(C#N)cc2F)cc1 | inconclusive [rising, full curve, poor fit] | –
CC(C)[C@@H](Nc1ccc(C(F)(F)F)cc1Cl)C(=O)OC(C#N)c1cccc(Oc2ccccc2)c1 (stereo partly drawn) | inactive | –
O=C(OC1CCCCC1)c1ccccc1C(=O)OC1CCCCC1 | inconclusive [rising, full curve, poor fit] | –
CCOc1ccc(N)cc1 | inconclusive [rising, partial curve] | –
CC12CC1(C)C(=O)N(c1cc(Cl)cc(Cl)c1)C2=O (stereo not drawn) | inactive | –
O=C(NC(=O)c1c(F)cccc1F)Nc1cc(Cl)c(Oc2ncc(C(F)(F)F)cc2Cl)c(Cl)c1 | active: 17.5 µM | –
CCN(CCO)CCn1c(Cc2ccccc2)nc2c1c(=O)n(C)c(=O)n2C | inactive | –
O=C(O)c1cc(I)cc(I)c1I | inconclusive [rising, full curve] | –
CCCC(=O)Cl | inactive | –
CCOS(=O)(=O)OCC | inconclusive [activator, full curve] | –
Cc1ccccc1[N+](=O)[O-] | inconclusive [falling, partial curve, poor fit] | –
O=C(O)c1nc(Cl)ccc1Cl | inactive | –
C=CC(=O)OC(C)(C)C | inactive | –
CO/C=C(/C(=O)OC)c1ccccc1COc1cccc(C(F)(F)F)n1 | inconclusive [fluorescent, full curve] | –
CCSC(C)CC1CC(=O)C(/C(CC)=N/OC/C=C/Cl)=C(O)C1 (stereo not drawn) | inconclusive [rising, full curve, poor fit] | –
c1ccc2c(c1)Sc1ccccc1N2CC1CN2CCC1CC2 (stereo not drawn) | inconclusive [rising, single point] | –
CCOC(=O)Nc1cccc(OC(=O)Nc2ccccc2)c1 | inactive | –

SMILES | Potency | activation
CCOC(=O)C(Cl)Cc1cc(-n2nc(C)n(C(F)F)c2=O)c(F)cc1Cl (stereo not drawn) | inconclusive [rising, single point] | –
CCCCCCC(=O)CCCCCC/C=C/C[C@@H](O)[C@H](O)[C@@](N)(CO)C(=O)O | – | inactive: 0.605% [at 13.5 µM]
CO/N=C(/C(=O)OC)c1ccccc1COc1ccccc1C | inconclusive [fluorescent, partial curve] | –
CC(C)(C)c1ccc(CSc2cnn(C(C)(C)C)c(=O)c2Cl)cc1 | inconclusive [rising, full curve] | –
CCc1ccc(C(=O)NN(C(=O)c2cc(C)cc(C)c2)C(C)(C)C)cc1 | inconclusive [rising, partial curve] | –
ClC1=C(Cl)[C@]2(Cl)[C@@H]3[C@@H](Cl)[C@H](Cl)C[C@@H]3[C@@]1(Cl)C2(Cl)Cl | inactive | –
O=[N+]([O-])c1ccccc1-c1ccccc1 | inactive | –
Cl/C=C/Cl | inconclusive [falling, partial curve, poor fit] | –
C(CCOCC1CO1)COCC1CO1 (stereo not drawn) | inactive | –
O=C1Nc2ccc(Cl)cc2C(c2ccccc2)=NC1O (stereo not drawn) | inconclusive [activator, single point] | –
C[N+]1(C)[C@@H]2CC[C@H]1CC(OC(=O)C(CO)c1ccccc1)C2 (stereo partly drawn) | inconclusive [falling, partial curve, poor fit] | –
Cc1cccc(Cc2cnc[nH]2)c1C | inconclusive [falling, partial curve, poor fit] | –
CC(Cl)C(=O)O (stereo not drawn) | inactive | –
Nc1cc(Cl)ccc1O | inconclusive [activator, partial curve] | –
CCCCCCCCCCBr | inactive | –
CCC[CH2][Sn]([CH2]CCC)([O]C(C)=O)[O]C(C)=O | inactive | –
CC1CN1 (stereo not drawn) | inactive | –
O=C(NC(=O)c1cc(F)c(F)cc1Cl)Nc1cc(F)ccc1N1CCC(C(=O)O)CC1 | inconclusive [rising, full curve] | –
COC(=O)c1ccccc1S(=O)(=O)NC(=O)Nc1nc(C)nc(OC)n1 | inactive | –

Target: 5-hydroxytryptamine receptor 2A (Homo sapiens) (UniProt P28223)
UniProt P28223, sequence (P28223 whole entry, looked up): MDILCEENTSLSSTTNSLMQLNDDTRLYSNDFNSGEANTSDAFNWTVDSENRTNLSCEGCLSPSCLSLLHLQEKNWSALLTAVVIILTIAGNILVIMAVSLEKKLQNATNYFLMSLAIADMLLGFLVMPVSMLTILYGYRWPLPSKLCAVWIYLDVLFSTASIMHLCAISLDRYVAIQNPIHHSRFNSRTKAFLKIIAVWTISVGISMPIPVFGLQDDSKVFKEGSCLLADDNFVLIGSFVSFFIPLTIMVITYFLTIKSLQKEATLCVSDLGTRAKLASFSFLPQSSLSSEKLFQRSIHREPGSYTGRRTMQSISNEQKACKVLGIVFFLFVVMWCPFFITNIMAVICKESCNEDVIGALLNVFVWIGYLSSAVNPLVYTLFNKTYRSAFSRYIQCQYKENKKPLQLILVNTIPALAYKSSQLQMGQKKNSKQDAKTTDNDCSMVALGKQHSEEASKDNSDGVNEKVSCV
Test: 5-hydroxytryptamine receptor 2A (HTR2A) small molecule agonists, cell-based qHTS assay (AID 1963587); note: nearly all actives have a fitted effect of over 30% in size
Details: HTR2A-CHO cells, calcium flux fluorescence, agonist mode; activation: at 76.8 µM (top of the series)
Procedure, shortened: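 HTR2A-CHO cells, plated 18 h at 37 C/5% CO2, dye-loaded 1 h at 37 C; compounds in DMSO added by pin tool (agonist mode). Intracellular calcium flux read as kinetic fluorescence on FDSS over 2 min at 1 s intervals.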

SMILES | Potency
O=C(NC(=O)c1c(F)cccc1F)Nc1cc(Cl)c(Oc2ncc(C(F)(F)F)cc2Cl)c(Cl)c1 | inactive
c1ccc2c(c1)Sc1ccccc1N2CC1CN2CCC1CC2 (stereo not drawn) | inconclusive [activator]
O=[N+]([O-])c1ccccc1-c1ccccc1 | inactive
O=C1Nc2ccc(Cl)cc2C(c2ccccc2)=NC1O (stereo not drawn) | inconclusive [activator, partial curve, poor fit]
